# In all, about 260,000 compounds went through this assay and about 890 (0.34%) were called active. The inconclusive results got no clear call from the source; some entries with a clear call stand among them for comparison. Calls follow the shape of the dose curve; as a rule, active = well fitted activation curve with a large enough effect; inconclusive = small, poorly fitted or top-dose-only effect; inactive = no such curve, though single readings can be large or run the other way. Potencies of inconclusive entries are left out as doubtful fits.
# Target: Pyruvate kinase PKM (Homo sapiens) (UniProt P14618)
# Sequence of UniProt P14618 (P14618 whole entry, looked up, canonical isoform): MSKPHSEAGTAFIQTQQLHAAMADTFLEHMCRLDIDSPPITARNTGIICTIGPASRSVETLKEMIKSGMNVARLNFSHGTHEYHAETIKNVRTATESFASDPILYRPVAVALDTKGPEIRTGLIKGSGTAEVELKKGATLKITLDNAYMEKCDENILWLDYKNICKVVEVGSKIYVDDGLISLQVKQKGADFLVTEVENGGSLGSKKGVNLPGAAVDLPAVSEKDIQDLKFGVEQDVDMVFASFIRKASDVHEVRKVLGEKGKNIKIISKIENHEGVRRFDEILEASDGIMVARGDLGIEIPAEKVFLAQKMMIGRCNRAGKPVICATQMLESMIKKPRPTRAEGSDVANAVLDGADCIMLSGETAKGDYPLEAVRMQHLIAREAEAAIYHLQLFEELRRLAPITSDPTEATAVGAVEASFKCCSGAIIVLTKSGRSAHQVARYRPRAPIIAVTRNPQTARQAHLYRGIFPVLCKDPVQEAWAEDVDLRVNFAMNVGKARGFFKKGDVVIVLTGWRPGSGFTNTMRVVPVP
# Assay: qHTS Assay for Activators of Human Muscle isoform 2 Pyruvate Kinase; also: nearly all actives have a fitted effect of over 55% in size
# Conditions: purified PKM2, Kinase-Glo ATP luminescence; Potency: activation; activation: at 57.5 µM (top of the series), 0% is enzyme alone, no compound
# Description: NIH Chemical Genomics Center [NCGC] Matthew G. Vander Heiden, M.D., Ph.D. [Harvard Medical School, 77 Avenue Louis Pasteur, Boston, MA 02115] MLPCN Grant: 1 R03 MH085679-01 NCGC Assay Overview: Human pyruvate kinase muscle 2 (hPK-M2) enzyme was supplied as a highly purified (>95% pure) preparation from Harvard Medical School and assayed for its ability to generate ATP from ADP using phosphoenolpyruvate (PEP) as a substrate. ATP generation was detected in a coupled reaction by luciferase-mediated luminescence, an ATP-dependent process. […] The enzyme was assayed at an intermediate level of activity to screen for both inhibitors and activators.
# NCGC Assay Protocol Summary: Three uL of substrate mix (at r.t.) in assay buffer (50 mM Imidazole pH7.2, 50 mM KCl, 7 mM MgCl2, 0.01% Tween 20, 0.05% BSA) was dispensed into white solid bottom 1,536 well microtiter plates so that the final concentrations of substrates in the assay were 0.1 mM ADP and 0.5 mM PEP. 23 nL of compound were delivered by a pin tool and 1 uL of enzyme mix in assay buffer (4 degree Celsius) was added. Plates were incubated at room temperature for 1 hour. Two uL of detection mix (Kinase-Glo, Promega; at 4 degree Celsius protected from light) was added and luminescence read by a ViewLux (Perkin Elmer) at 5 second exposure/plate. Data were normalized to the uninhibited and AC100 inhibition (no enzyme). To monitor activation, the first column contained a titration of the activator, NCGC00031955-01 (16-point 1:2 dilutions in duplicate starting at 57 uM) and the first 16 rows of column 4 contained 57 uM of NCGC00031955-01.
# % is scaled to controls: 0 for no effect and ±100 for the full control effect; potency is read from the fitted curve at half-maximal effect; tags tell the direction and shape of the fitted curve.
Compound,Potency,activation
CCOC(=O)C(=O)N1CCN(c2ccccc2OC)CC1,"inconclusive [rising, single point]",
CC(Oc1ccccc1F)C(=O)NCCN1CCCCC1 (stereo unspecified),"inconclusive [rising, single point]",
O=C(Nc1ccc(S(=O)(=O)Nc2ccccc2)cc1)C1COc2ccccc2O1 (stereo unspecified),"inconclusive [rising, partial curve]",
Cc1ccc(C)c(NC(=O)CCC(=O)N/N=C/c2cc([N+](=O)[O-])ccc2O)c1,,inactive: -0.208%
CCOc1cc(/C=C2\SC(=S)N(C(C(=O)O)c3ccccc3)C2=O)ccc1O (stereo unspecified),,inactive: 3.07%
Cn1c(=O)cc(SCC(=O)N2CCN(c3ccccn3)CC2)c2ccccc21,"inconclusive [rising, single point]",
Cc1cccc(NS(=O)(=O)c2cc3c(cc2C)n(C)c(=O)c(=O)n3C)c1,active: 0.398 µM,
CCOC(=O)C1CCN(S(=O)(=O)c2ccc(Cl)s2)CC1,,inactive: 13.9%
Cc1ccc(S(=O)(=O)Cc2sc3ccccc3[n+]2C)cc1,"inconclusive [rising, partial curve]",
O=c1[nH]c2cc3c(cc2cc1CN(Cc1cccnc1)C(=S)NCc1ccco1)OCCO3,,inactive: 9.17%
CN(Cc1ccccc1)S(=O)(=O)c1ccc(Cl)c(C(=O)NCCc2ccccn2)c1,"inconclusive [rising, single point]",
COc1ccc(-c2cn(-c3ccc(Cl)cc3)c3[n+]2CCCCC3)cc1,,inactive: -10.4%
CC1(C)C=Cc2c(c3c(c4c(=O)c(-c5ccc(O)cc5)coc24)OC(C)(C)CC3)O1,"inconclusive [rising, partial curve]",
Cc1cccc(N=C2NC(=O)/C(=C/C=C/c3ccco3)S2)c1C,"inconclusive [rising, single point]",
CC1CCN(c2ccc(C(=O)NCc3cccs3)cn2)CC1,"inconclusive [rising, partial curve]",
CC1(C)Cc2cccc(C(=O)Nc3ccncc3)c2O1,"inconclusive [rising, single point]",
N#Cc1c(-c2ccccc2)nc(SCC(=O)N2c3ccccc3Sc3ccccc32)[nH]c1=O,,inactive: 1.03%
O=c1c2cnn(-c3ccc(F)cc3)c2ncn1Cc1cccnc1,"inconclusive [rising, partial curve]",
Nc1nccc(-c2nn(-c3ccc(Cl)cc3)ccc2=O)n1,"inconclusive [rising, single point]",
O=C(CN1CCN(S(=O)(=O)c2ccccc2)CC1)Nc1ccccc1C(=O)c1ccccc1,,inactive: -15.6%
COC(=O)C1=C(C)NC(=S)NC1c1ccco1 (stereo unspecified),,inactive: 4.52%
O=C(O)c1cccc(CN2C(=O)SC(Nc3cccc4ccccc34)C2=O)c1 (stereo unspecified),"inconclusive [rising, single point]",
O=[N+]([O-])c1ccc(S(=O)(=O)NCCN2CCOCC2)cc1,"inconclusive [rising, partial curve]",
CCCc1cc(N2CCC(C(N)=O)CC2)nc(-c2ccccc2)n1,"inconclusive [rising, single point]",

Compound,Potency,activation
O=C1COc2ccc(OCc3ccc(F)cc3)cc21,"inconclusive [rising, partial curve]",
CC(C)CNC(C)C(=O)Nc1ccc(S(N)(=O)=O)cc1 (stereo unspecified),"inconclusive [rising, single point]",
Cc1cccc(NC(=O)C2C(C(=O)O)C3C=CC2C32CC2)c1C (stereo unspecified),"inconclusive [rising, full curve, poor fit]",
Cc1ccc(C)c(N2CCN(C(=O)C3CCN(c4nnc(N5CCCC5=O)s4)CC3)CC2)c1,,inactive: -19.9%
CC1(C)N=C(N)N=C(N)N1c1cccc(CN)c1,,inactive: -0.886%
Cn1ccs/c1=N\S(=O)(=O)c1ccc(Br)cc1,active: 15.8 µM,
COCCNC(=S)N1CCN(S(=O)(=O)c2ccc(Cl)s2)CC1,"inconclusive [rising, partial curve]",
O=c1c(C/C=C/c2ccccc2)c(O)ccn1Cc1ccc(Cl)cc1Cl,"inconclusive [rising, partial curve]",
CC(C)Oc1ccc(CCC(=O)NNC(=S)NCc2ccccc2)cc1,"inconclusive [rising, full curve, poor fit]",
COc1ccc(CCNC(=O)CC2SC(N)=NC2=O)cc1OC (stereo unspecified),,inactive: -1.36%
O=C(OCC(=O)N1CCN(C(=O)c2ccco2)CC1)c1cc(-c2ccc(F)cc2)nc2ccccc12,,inactive: 28.5%
N#Cc1nccnc1S(=O)(=O)c1cccs1,"inconclusive [rising, single point]",
Cc1ccc(OCC(=O)N/N=C\c2ccc(-c3cccc(C(=O)O)c3)o2)c(C)c1,"inconclusive [rising, partial curve]",
O=C1CC(Sc2ccc(Cl)cc2)C(=O)N1c1ccc2c(c1)OCCO2 (stereo unspecified),"inconclusive [rising, partial curve]",
Fc1ccccc1-c1nc2ccccc2[nH]1,,inactive: -64.9%
COc1ccc(CCNC(=O)c2ccc3ccccc3n2)cc1OC,"inconclusive [rising, single point]",
CC1CCCC(NC(=O)CCC(=O)c2ccc(F)cc2)C1C (stereo unspecified),,inactive: -1.22%
Cc1csc(N/N=C/c2ccc([N+](=O)[O-])cc2)n1,,inactive: 1.96%
CC(=O)N1N=C(c2cccc(NS(C)(=O)=O)c2)CC1c1cccs1 (stereo unspecified),"inconclusive [rising, single point]",
CCNc1nc(NCC)nc(OCCOC(=O)COc2ccc(Cl)cc2Cl)n1,"inconclusive [rising, partial curve]",
NC(=S)N/N=C/c1ccc(-c2cc(Cl)cc(Cl)c2)o1,"inconclusive [rising, single point]",
O=C(N/N=C/C=C\c1ccco1)c1ccccn1,"inconclusive [rising, single point]",
COc1ccc2c(c1)-c1nc(NC(=O)c3cccs3)sc1CC2,"inconclusive [rising, single point]",
Cc1nn(CCc2nn[nH]n2)c2nc(-c3ccc(C4CCCCC4)cc3)cc(C(F)(F)F)c12,,inactive: 1.66%

Compound,Potency,activation
CCOc1cc(S(=O)(=O)NCCc2ccccc2C)c(OCC)cc1-n1cnnn1,"inconclusive [rising, partial curve]",
CC1=C(C(=O)N2CCCC(CCC(=O)NCc3ccccc3F)C2)OCCO1 (stereo unspecified),"inconclusive [rising, single point]",
O=C(CSc1nc(-c2ccccc2)nc2c1Cc1ccccc1O2)Nc1ccc(C(=O)O)cc1,"inconclusive [rising, single point]",
COc1cc2cc(CN(CCc3ccccc3C)C(=S)NCCCN3CCOCC3)c(=O)[nH]c2cc1OC,"inconclusive [rising, partial curve, poor fit]",
Fc1ccc(COc2ccc(Br)cc2CNCC2CCCO2)cc1 (stereo unspecified),"inconclusive [rising, full curve]",
O=c1cc(CSc2nc3ccccc3c(=O)[nH]2)c2ccc(O)cc2o1,,inactive: 12%
COC(=O)[C@@]1(Cc2ccc(OC)cc2)[C@H]2c3cc(C(=O)N4CCCC4)n(CCc4ccc(O)c(O)c4)c3C[C@H]2CN1C(=O)c1ccccc1,"inconclusive [rising, full curve]",
Cc1cc(NC(=O)CSc2ccc3nnc(-c4cccc(F)c4)n3n2)no1,"inconclusive [rising, single point]",
Cn1c(SCC(=O)Nc2nccs2)nnc1-c1ccc(S(=O)(=O)N2CCCC2)cc1,,inactive: 8.06%
C/C(=N/n1cnnc1)c1cccnc1,"inconclusive [rising, single point]",
Cc1ccc(S(=O)(=O)N2CCN(Cc3cccc(C)c3O)CC2)cc1,"inconclusive [rising, partial curve]",
CC(=O)OCCNc1cc(SCc2ccco2)c2nonc2c1[N+](=O)[O-],"inconclusive [rising, single point]",
COC(=O)C1CCN(S(=O)(=O)c2ccc(OC)cc2)CC1,"inconclusive [rising, partial curve]",
CCOc1ccc(S(=O)(=O)n2ccc(C)n2)cc1,"inconclusive [rising, partial curve]",
CCOc1ccc2nc(NC(=S)N(C)C)sc2c1,,inactive: -7.69%
COc1ccccc1N1CCN(C(=O)c2ccc3c(=O)n(Cc4ccco4)c(=S)[nH]c3c2)CC1,active: 1.12 µM,
COc1cccc(C(=O)NNS(=O)(=O)c2ccc(F)cc2)c1,"inconclusive [rising, single point]",
CCOc1ccc(S(=O)(=O)Nc2ccc3c(c2)OCO3)c2cccnc12,"inconclusive [rising, single point]",
COC(=O)c1ccc2c(=O)n(CCO)c(=S)[nH]c2c1,"inconclusive [rising, partial curve]",
COc1cccc(NC(=O)CSc2ccc(-c3sc(C)nc3C)nn2)c1,"inconclusive [rising, full curve]",
CCCc1[nH]nc2c1C(c1ccc(OC)c(CSC3=NCCS3)c1)C(C#N)=C(N)O2 (stereo unspecified),"inconclusive [rising, partial curve, poor fit]",
Cc1cc(NC(=O)CSc2nc(N)c(NC(=O)c3ccco3)c(=O)[nH]2)no1,"inconclusive [rising, single point]",
Cc1cc(C)cc(NS(=O)(=O)c2ccc3[nH]cc(C(=O)NCc4ccco4)c(=O)c3c2)c1,"inconclusive [rising, partial curve]",

# Reference: PubChem BioAssay AID1631 (National Center for Advancing Translational Sciences (NCATS), 2009)
